Assay results published in the supplement of paper PMC8728848.
Some of the results follow.

Key:
Test in all cases: glycan array binding signal (z-score within array); higher = stronger binding
Settings in all cases: glycan notation: IUPAC condensed, linker removed
[1] = molecular target: GlcNAc(b1-3)Gal(b1-4)GlcNAc(b1-2)[GlcNAc(b1-3)Gal(b1-4)GlcNAc(b1-6)]Man(a1-6)[GlcNAc(b1-3)Gal(b1-4)GlcNAc(b1-2)Man(a1-3)]Man(b1-4)GlcNAc(b1-4)GlcNAc
Summary of the method: (§1)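 The Consortium for Functional Glycomics database supplied 3228 glycan arrays, of which those lacking an available protein sequence were dropped. The binding signal, a within-array Z-score, was averaged across arrays of the same protein sequence and across linkers. Negative scores can be read as non-binding.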

[2] = molecular target: GlcNAc(b1-3)Gal(b1-4)GlcNAc(b1-3)Gal(b1-4)GlcNAc
Summary of the method: as §1

[3] = molecular target: GlcNAc(b1-3)Gal(b1-4)GlcNAc(b1-3)Gal(b1-4)GlcNAc(b1-2)Man(a1-3)[GlcNAc(b1-3)Gal(b1-4)GlcNAc(b1-3)Gal(b1-4)GlcNAc(b1-2)Man(a1-6)]Man(b1-4)GlcNAc(b1-4)GlcNAc
Summary of the method: as §1

[4] = molecular target: GlcNAc(b1-3)Gal(b1-4)GlcNAc(b1-3)Gal(b1-4)GlcNAc(b1-2)Man(a1-3)[GlcNAc(b1-3)Gal(b1-4)GlcNAc(b1-3)Gal(b1-4)GlcNAc(b1-2)Man(a1-6)]Man(b1-4)GlcNAc(b1-4)[Fuc(a1-6)]GlcNAc
Summary of the method: as §1

[5] = molecular target: GlcNAc(b1-3)Gal(b1-4)GlcNAc(b1-3)Gal(b1-4)GlcNAc(b1-2)[GlcNAc(b1-3)Gal(b1-4)GlcNAc(b1-3)Gal(b1-4)GlcNAc(b1-6)]Man(a1-6)[GlcNAc(b1-3)Gal(b1-4)GlcNAc(b1-3)Gal(b1-4)GlcNAc(b1-2)Man(a1-3)]Man(b1-4)GlcNAc(b1-4)[Fuc(a1-6)]GlcNAc
Summary of the method: as §1

[6] = molecular target: GlcNAc(b1-3)Gal(b1-4)GlcNAc(b1-3)Gal(b1-4)GlcNAc(b1-3)Gal(b1-4)GlcNAc(b1-2)Man(a1-3)[GlcNAc(b1-3)Gal(b1-4)GlcNAc(b1-3)Gal(b1-4)GlcNAc(b1-3)Gal(b1-4)GlcNAc(b1-2)Man(a1-6)]Man(b1-4)GlcNAc(b1-4)GlcNAc
Summary of the method: as §1

[7] = molecular target: GlcNAc(b1-3)Gal(b1-4)GlcNAc(b1-3)Gal(b1-4)GlcNAc(b1-3)Gal(b1-4)GlcNAc(b1-2)Man(a1-3)[GlcNAc(b1-3)Gal(b1-4)GlcNAc(b1-3)Gal(b1-4)GlcNAc(b1-3)Gal(b1-4)GlcNAc(b1-2)Man(a1-6)]Man(b1-4)GlcNAc(b1-4)[Fuc(a1-6)]GlcNAc
Summary of the method: as §1

[8] = molecular target: GlcNAc(b1-3)Gal(b1-4)GlcNAc(b1-3)Gal(b1-4)GlcNAc(b1-3)Gal(b1-4)GlcNAc(b1-2)[GlcNAc(b1-3)Gal(b1-4)GlcNAc(b1-3)Gal(b1-4)GlcNAc(b1-3)Gal(b1-4)GlcNAc(b1-6)]Man(a1-6)[GlcNAc(b1-3)Gal(b1-4)GlcNAc(b1-3)Gal(b1-4)GlcNAc(b1-3)Gal(b1-4)GlcNAc(b1-2)Man(a1-3)]Man(b1-4)GlcNAc(b1-4)[Fuc(a1-6)]GlcNAc
Summary of the method: as §1

[9] = molecular target: GlcNAc(b1-3)Gal(b1-4)GlcNAc(b1-3)Gal(b1-4)GlcNAc(b1-3)Gal(b1-4)GlcNAc(b1-3)Gal(b1-4)GlcNAc(b1-2)Man(a1-3)[GlcNAc(b1-3)Gal(b1-4)GlcNAc(b1-3)Gal(b1-4)GlcNAc(b1-3)Gal(b1-4)GlcNAc(b1-3)Gal(b1-4)GlcNAc(b1-2)Man(a1-6)]Man(b1-4)GlcNAc(b1-4)GlcNAc
Summary of the method: as §1

[10] = molecular target: GlcNAc(b1-3)Gal(b1-4)GlcNAc(b1-3)Gal(b1-4)GlcNAc(b1-3)Gal(b1-4)GlcNAc(b1-3)Gal(b1-4)GlcNAc(b1-2)Man(a1-3)[GlcNAc(b1-3)Gal(b1-4)GlcNAc(b1-3)Gal(b1-4)GlcNAc(b1-3)Gal(b1-4)GlcNAc(b1-3)Gal(b1-4)GlcNAc(b1-2)Man(a1-6)]Man(b1-4)GlcNAc(b1-4)[Fuc(a1-6)]GlcNAc
Summary of the method: as §1

[11] = molecular target: GlcNAc(b1-3)Gal(b1-4)GlcNAc(b1-3)Gal(b1-4)GlcNAc(b1-3)Gal(b1-4)GlcNAc(b1-3)Gal(b1-4)GlcNAc(b1-2)[GlcNAc(b1-3)Gal(b1-4)GlcNAc(b1-3)Gal(b1-4)GlcNAc(b1-3)Gal(b1-4)GlcNAc(b1-3)Gal(b1-4)GlcNAc(b1-6)]Man(a1-6)[GlcNAc(b1-3)Gal(b1-4)GlcNAc(b1-3)Gal(b1-4)GlcNAc(b1-3)Gal(b1-4)GlcNAc(b1-3)Gal(b1-4)GlcNAc(b1-2)Man(a1-3)]Man(b1-4)GlcNAc(b1-4)[Fuc(a1-6)]GlcNAc
Summary of the method: as §1

[12] = molecular target: GlcNAc(b1-3)Gal(b1-4)GlcNAc(b1-3)Gal(b1-4)GlcNAc(b1-3)GalNAc
Summary of the method: as §1

[13] = molecular target: GlcNAc(b1-3)Gal(b1-4)GlcNAc(b1-3)GalNAc
Summary of the method: as §1

[14] = molecular target: GlcNAc(b1-3)Gal(b1-4)GlcNAc(b1-3)[GlcNAc(b1-3)Gal(b1-4)GlcNAc(b1-3)]GalNAc
Summary of the method: as §1

[15] = molecular target: GlcNAc(b1-3)Gal(b1-4)GlcNAc(b1-6)[Gal(b1-3)]GalNAc
Summary of the method: as §1

[16] = molecular target: GlcNAc(b1-3)Gal(b1-4)GlcNAc(b1-6)[GlcNAc(b1-3)Gal(b1-3)]GalNAc
Summary of the method: as §1

[17] = molecular target: GlcNAc(b1-3)Gal(b1-4)GlcNAc(b1-6)[GlcNAc(b1-3)]Gal(b1-4)GlcNAc
Summary of the method: as §1

GlcNAc(b1-3)GalNAc = molecular target: GlcNAc(b1-3)GalNAc
Summary of the method: as §1

GlcNAc(b1-3)Man = molecular target: GlcNAc(b1-3)Man
Summary of the method: as §1

[18] = molecular target: GlcNAc(b1-3)[GlcNAc(b1-4)][GlcNAc(b1-6)]GlcNAc
Summary of the method: as §1

[19] = molecular target: GlcNAc(b1-3)[GlcNAc(b1-6)]Gal(b1-4)GlcNAc
Summary of the method: as §1

[20] = molecular target: GlcNAc(b1-3)[GlcNAc(b1-6)]GalNAc
Summary of the method: as §1

[21] = molecular target: GlcNAc(b1-4)Gal(b1-4)GlcNAc
Summary of the method: as §1

GlcNAc(b1-4)GlcNAc = molecular target: GlcNAc(b1-4)GlcNAc
Summary of the method: as §1

[22] = molecular target: GlcNAc(b1-4)GlcNAc(b1-4)GlcNAc
Summary of the method: as §1

[23] = molecular target: GlcNAc(b1-4)GlcNAc(b1-4)GlcNAc(b1-4)GlcNAc(b1-4)GlcNAc
Summary of the method: as §1

[24] = molecular target: GlcNAc(b1-4)GlcNAc(b1-4)GlcNAc(b1-4)GlcNAc(b1-4)GlcNAc(b1-4)GlcNAc
Summary of the method: as §1

[25] = molecular target: GlcNAc(b1-4)[GlcNAc(b1-6)]GalNAc
Summary of the method: as §1

[26] = molecular target: GlcNAc(b1-6)Gal(b1-4)GlcNAc
Summary of the method: as §1

GlcNAc(b1-6)GalNAc = molecular target: GlcNAc(b1-6)GalNAc
Summary of the method: as §1

GlcNAc3Prop(b1-4)GlcNAc = molecular target: GlcNAc3Prop(b1-4)GlcNAc
Summary of the method: as §1

[27] = molecular target: GlcNAc6S(b1-3)Gal(b1-4)GlcNAc
Summary of the method: as §1

Kdn(a2-3)Gal(b1-3)GalNAc = molecular target: Kdn(a2-3)Gal(b1-3)GalNAc
Summary of the method: as §1

Kdn(a2-3)Gal(b1-3)GlcNAc = molecular target: Kdn(a2-3)Gal(b1-3)GlcNAc
Summary of the method: as §1

Kdn(a2-3)Gal(b1-4)Glc = molecular target: Kdn(a2-3)Gal(b1-4)Glc
Summary of the method: as §1

Kdn(a2-3)Gal(b1-4)GlcNAc = molecular target: Kdn(a2-3)Gal(b1-4)GlcNAc
Summary of the method: as §1

[28] = molecular target: Kdn(a2-3)Gal(b1-4)[Fuc(a1-3)]GlcNAc
Summary of the method: as §1

Kdn(a2-6)Gal(b1-4)GlcNAc = molecular target: Kdn(a2-6)Gal(b1-4)GlcNAc
Summary of the method: as §1

B1: rAAL-2 (Agrocybe aegerita) (protein)
chain: MTSNVITQDLPIPVASRGFADIVGFGLDGVVIGRNAVNLQPFLAVKNFAQNAGGWLTTKHVRLIADTTGTGKGDIVGFGNAGVYVSVNNGKNTFADPPKMVIANFGYDAGGWRVEKHLRYLADIRKIGRADIIGFGEKGVLVSRNNGGLNFGPATLVLKDFGYDAGGWRLDRHLRFLADVTGNGHLDIVGFGDKHVFISRNNGDGTFAPAKSVIDNFCIDAGGWKIGDHPRFVADLTGDGTADIIGCGKAGCWVALNNGGGVFGQVKLVINDFGTDKGWQAAKHPRFIADLTGNGRGDVVGFGNAGVYVALNNGDGTFQSAKLVLKDFGVQQGWTVSKHRRFVVDLTGDGCADIIGFGEKETLVSYNDGKGNFGPVKALTNDFSFSGGKWAPETTVCWMANLDSSRH
glycan array binding signal (z-score) [1]: 2.29 | glycan array binding signal (z-score) [2]: 3.77 | glycan array binding signal (z-score) [3]: 3.92 | glycan array binding signal (z-score) [4]: 4.05 | glycan array binding signal (z-score) [5]: 3.39 | glycan array binding signal (z-score) [6]: 2.85 | glycan array binding signal (z-score) [7]: 4.52 | glycan array binding signal (z-score) [8]: 3.03 | glycan array binding signal (z-score) [9]: 4.12 | glycan array binding signal (z-score) [10]: 3.97 | glycan array binding signal (z-score) [11]: 2.88 | glycan array binding signal (z-score) [12]: 2.86 | glycan array binding signal (z-score) [13]: 3.11 | glycan array binding signal (z-score) [14]: 2.75 | glycan array binding signal (z-score) [15]: 3.58 | glycan array binding signal (z-score) [16]: 2.68 | glycan array binding signal (z-score) [17]: 3.18 | glycan array binding signal (z-score) (GlcNAc(b1-3)GalNAc): 0.798 | glycan array binding signal (z-score) (GlcNAc(b1-3)Man): 0.515 | glycan array binding signal (z-score) [18]: -0.339 | glycan array binding signal (z-score) [19]: 3.11 | glycan array binding signal (z-score) [20]: 0.938 | glycan array binding signal (z-score) [21]: -0.344 | glycan array binding signal (z-score) (GlcNAc(b1-4)GlcNAc): 0.483 | glycan array binding signal (z-score) [22]: 0.153 | glycan array binding signal (z-score) [23]: 0.167 | glycan array binding signal (z-score) [24]: -0.006 | glycan array binding signal (z-score) [25]: -0.195 | glycan array binding signal (z-score) [26]: 0.285 | glycan array binding signal (z-score) (GlcNAc(b1-6)GalNAc): 0.062 | glycan array binding signal (z-score) (GlcNAc3Prop(b1-4)GlcNAc): 0.177 | glycan array binding signal (z-score) [27]: -0.312 | glycan array binding signal (z-score) (Kdn(a2-3)Gal(b1-3)GalNAc): -0.108 | glycan array binding signal (z-score) (Kdn(a2-3)Gal(b1-3)GlcNAc): -0.141 | glycan array binding signal (z-score) (Kdn(a2-3)Gal(b1-4)Glc): -0.307 | glycan array binding signal (z-score) (Kdn(a2-3)Gal(b1-4)GlcNAc): -0.254 | glycan array binding signal (z-score) [28]: -0.096 | glycan array binding signal (z-score) (Kdn(a2-6)Gal(b1-4)GlcNAc): -0.269
